# Results reported in the supplement of paper PMC11417369.
# Some of the results follow.
# Tested on: PfHDP1 homeodomain (GST-tagged)
# Test: gcPBM binding intensity (ln(normalized median fluorescence intensity)); higher = stronger DNA binding
# Method in brief: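 Binding intensity is defined as the maximum Masliner-normalised natural-log median intensity across replicate spots for either probe orientation. It was measured on an Agilent 4 × 180k array of primer-extended double-stranded 36-bp intergenic genomic probes and negative controls, to which GST-tagged P. falciparum DNA-binding domains made in E. coli were applied for 1 h in 1× PBS with 1% milk, 0.2 mg/ml BSA, 0.5% salmon testes DNA and 0.03% Triton X-100. Detection was by Alexa488 anti-GST antibody and scanning at 488 nm.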
row,Sequence,gcPBM binding intensity (ln)
1,TTTTCCTTTACATAATGTACACAAAAAAAAAAAAAA [XGTACX_site716],6.38
2,TCTTTTTTTTGAATTTGTACATAAGACAATAAAAAA [XGTACX_site4682],6.2
3,CATCATAGAGTGGAGTGTACAAATATGTCAACATAT [XGTACX_site2264],6.93
4,AATACAGACAGACACACACACAAAATAAAATACAAA [CACACA_site245],6.88
5,CTAGACTTTATTAATTGTACATATGTGTATTTTATA [XGTACX_site480],6.71
6,TAGAAGCATTGACACACACACATACATACACATACA [CACACA_site6802],7.02
7,TATATATATATATAATGTACATAATAATAATACATC [XGTACX_site5587],9.02
8,GTCTATAACTATTGCGCACACTTTAAAAAAAAAGAA [CACACA_site1003],8.53
9,AAAGAAAAAAAAATTACACACATATATTATATATAT [CACACA_site3211],7.12
10,TTTTCTTCATAAATGCTGCACTGGTTTAAGCATGAT,6.7
11,AAATAGAAGAAATATGCACACATACATTGAAATGTT [CACACA_site7996],8.79
12,TTTATTAATAAACACACACACACACCCAAAATAAAA [CACACA_site7966],7.17
13,CCTTAATATTTTTGAAGTACATATTTATTTTACAAG [XGTACX_site3049],6.18
14,ATTTATATCTCCATATGTTCAAAACTTTCACAAATA [TGCATGCA_negctrl_site108],6.48
15,AAAATAAGTAATTACTAATATATAAATTAATAATTA [CACACA_negctrl_site1602],5.84
16,AATATAAATTAATTTACACACTAAAAAATATATATA [CACACA_site3778],6.59
17,AATTGAAAAATATATAAGAAGAAATATATATATGTT [GTGCAC_negctrl_site97],6.57
18,GTTTTTAGTATTTTTTGTACTTAATACATAGCCTTA [XGTACX_site7318],6.22
19,AACACGCGCGGACACACACACACACCCACATATATA [CACACA_site5252],6.97

row,Sequence,gcPBM binding intensity (ln)
1,TTAATATGAAATAAATGTACATAATACATAATAAAA [XGTACX_site6194],6.44
2,ATTATGTATACATAAACACACATATTTATAAAAAAA [CACACA_site6261],6.67
3,ATATATTTATATATATGTACATATTATGTTAAGAAA [XGTACX_site1111],6.77
4,TTTATGCATAGAGAAACATGCAAGAAAGATGCAAAA [TGCATGCA_site726],6.79
5,TTCCTTATTATTATTTTACACACGTCCTAATAAGAG [CACACA_site8364],7.2
6,GCTTGTACATTTTTAAAAAATGACTTCGAAAGGAAT [CACACA_negctrl_site453],7.01
7,TTTTAATTAGCTAGACGTACAATAATATACAAATAT [XGTACX_site6068],6.38
8,CATATGTAGGGAACAATATAATATGCTTTGAATATG [GTGCAC_negctrl_site524],6.75
9,ATTTTTTTAAGATAAGAAAAATAAAGTGTGGATATT [XGTACX_negctrl_site476],6.54
10,TATGTATTCATATGTTGTACATTATATATAATAAGT [XGTACX_site6589],6.85
11,AAATCAGAACCTATTTGTACATATACAAAAATGATT [XGTACX_site2421],6.16
12,CAAACCCACGGACACACACACACAAAAATGATTAAA [CACACA_site5365],6.34
13,GGATACGCTTTTGTACCACTCCCCCTTTTGGGAATA [CACACA_negctrl_site1363],6.4
14,TTTATTTATTTATGTGGTACTTCAAAAATATATACT [XGTACX_site355],6.54
15,ATCATATAAACATATTGTACTTAAATACATAATATT [XGTACX_site3800],6.44
16,AACTCTTAGAATGACGGTACAGTATAATAGGTGAAC [XGTACX_site7163],6.51
17,ATATAATGAATTATTAGAAAATAAAATGAATAAAGT [CACACA_negctrl_site690],6.86
18,ATATATATATATAGTGCACACTTAAGAATATAAAGA [CACACA_site4771],10.3
19,AACTATTACTTTCTTTCACACATTTTTTTTTTTTTT [CACACA_site5355],6.66

row,Sequence,gcPBM binding intensity (ln)
1,TGTTATATAATTTAGCGTACAGGTTATAGGACGGAT [XGTACX_site8823],6.99
2,CAAAAGAATATATGTAGTACATGTTGTAGATAATAT [XGTACX_site1044],7.03
3,CGCGAAGTAGCATTCACACACAGCAAAATATAAATA [CACACA_site7608],6.43
4,GCACAACATATATTATCACACACATATATATATATA [CACACA_site8619],9.14
5,TATAATGAACATATGTGTACATATATTTTTTAAATT [XGTACX_site8736],6.29
6,ACCATATAAATAAACACACACACACCGATATATATA [CACACA_site5310],7.05
7,AAAAAACAAAAAAAAAAAAAAATAATACAATATAAT [CACACA_negctrl_site1630],6.13
8,AAATTGGGTACAAATACACACACATATATATATTAA [CACACA_site8745],6.62
9,TTTATACAATAAAATGCATGCAAGTATCTATTTTAT [TGCATGCA_site210],6.43
10,TCAGATATATAGAATACACACATGGATATAAGAAAT [CACACA_site7831],6.8
11,ATATTTTGTAACTATACACACATATATATATTATAA [CACACA_site3062],6.76
12,TTTTTGTAATATTATGATGTCATATATATATATATA [XGTACX_negctrl_site618],9.19
13,TATCACTATAGACAAGCATGCATATGTACTAATATC [TGCATGCA_site1020],6.54
14,ATATTATAAAATAAAAGTACACAATTATATATATAT [XGTACX_site8812],8.61
15,AATAAAATGGAATACGGTACACATAATCCTAAAATG [XGTACX_site926],6.4
16,TATTTTTAAAATTAAATGAATAAATAAATAAATATA [XGTACX_negctrl_site553],5.98
17,AAATTCACAATGTTTGGTACACATAAAAAAAAAAGA [XGTACX_site7109],6.58
18,AACATACGACAATACGCACACATATCTGTACATATT [CACACA_site5115],7.45
